The results in this text go back to the supplement of paper PMC3334620.

Whole data set: some 33,000 sequences, median “E-score (-0.5 to 0.5)” near -0.021, cut for the highest 2% near 0.32. The list shows a part of the results.

The test deals with T1, Zap1 (UniProt P47043).
T1 sequence: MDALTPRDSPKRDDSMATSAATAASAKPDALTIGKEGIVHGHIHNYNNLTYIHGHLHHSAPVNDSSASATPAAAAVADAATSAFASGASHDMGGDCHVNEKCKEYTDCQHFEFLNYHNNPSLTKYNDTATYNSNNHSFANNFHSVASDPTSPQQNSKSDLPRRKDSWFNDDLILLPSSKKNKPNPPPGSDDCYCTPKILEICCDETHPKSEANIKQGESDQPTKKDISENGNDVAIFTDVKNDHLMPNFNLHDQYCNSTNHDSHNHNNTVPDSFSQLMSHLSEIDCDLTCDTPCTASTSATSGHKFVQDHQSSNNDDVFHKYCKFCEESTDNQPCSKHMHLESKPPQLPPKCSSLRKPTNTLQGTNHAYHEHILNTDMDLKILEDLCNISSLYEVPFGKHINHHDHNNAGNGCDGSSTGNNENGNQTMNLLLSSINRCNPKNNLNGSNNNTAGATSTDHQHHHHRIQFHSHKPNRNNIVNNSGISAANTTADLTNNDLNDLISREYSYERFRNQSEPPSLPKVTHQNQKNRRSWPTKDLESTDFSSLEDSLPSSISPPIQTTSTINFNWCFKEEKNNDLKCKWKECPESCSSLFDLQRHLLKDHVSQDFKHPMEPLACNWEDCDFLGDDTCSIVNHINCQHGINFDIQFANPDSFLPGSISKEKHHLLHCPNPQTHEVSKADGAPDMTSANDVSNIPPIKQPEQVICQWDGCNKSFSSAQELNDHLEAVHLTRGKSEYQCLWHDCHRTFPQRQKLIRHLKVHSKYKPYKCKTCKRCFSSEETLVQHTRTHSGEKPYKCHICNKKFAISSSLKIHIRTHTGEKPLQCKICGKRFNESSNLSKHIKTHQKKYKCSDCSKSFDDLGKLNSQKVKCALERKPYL
The test is described as follows: PBM E-score (8-mer binding enrichment) (E-score (-0.5 to 0.5)); higher = stronger / more preferred TF binding; most listed sequences are background and not binding sites. The conditions noted are these: protein concentration: 200 nM; construct: GST-full length. The procedure, abridged: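 E-scores (a modified Wilcoxon-Mann-Whitney statistic) were assigned by the Universal PBM Analysis Suite to every ungapped eight-base word pooled with its reverse complement. The input came from universal all-10-mer Agilent arrays made double-stranded by primer extension and probed with GST-tagged yeast transcription factors at about 100-200 nM. Fluorescent anti-GST detected bound protein, and masliner normalised the scans.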
Take CATGGTTC: the “PBM E-score” value was 0.132. As for ATTGAGGC, the “PBM E-score” value came to 0.0527. For the sequence AGCTCAGA, the “PBM E-score” value was -0.119. As for CAGGTTCC, the figure is 0.0995. As for GGTCTTAC, the figure is 0.103; as for ACTTGGCC, 0.0412. In the case of GCGGTGTA, the “PBM E-score” value stood at 0.063.

Turning to AGATACCT, the “PBM E-score” value was found to be 0.125.

CTAGAAAG: the “PBM E-score” value worked out at 0.052. For GGGCAATA, the “PBM E-score” value is -0.159. With ATATCAGC the figure was -0.307; with CGACTTTA, 0.0644; with TGAATGAA, 0.0566. As for AAAGACGG, the figure is -0.00219; as for AACGTGTA, -0.176; as for AGAAGACG, 0.106. As for GAACAACA, the figure is 0.0722. For CACTCAAA, the “PBM E-score” value worked out at 0.0674. As for CGGGCAGA, the figure is -0.0649; as for CAGTGCGG, -0.149. As for CTTTCTAC, the figure is -0.00024.

As for TCATTACA, the “PBM E-score” value was 0.169.

In the case of CTAAACTC, the “PBM E-score” value is -0.0925.

On to AGATTACT, for which the “PBM E-score” value is -0.0381. With ATTACATA the figure was -0.0412; with ACCGTGGC, -0.0956; with AATCAAAG, 0.0185. With ATGATGAC the figure was -0.0562. Regarding CTCAGCAA, the “PBM E-score” value worked out at 0.0486. With AACACATG the figure was 0.112; with CAGGGCTA, -0.0311. With AGTCTATA the figure was 0.0912; with AATTAAAG, 0.228.

Consider GACGGCGA, for which the “PBM E-score” value is -0.215. As for ACATTCCG, the figure is -0.00407.

In the case of AACGAAGT, the “PBM E-score” value was -0.209. As for AAGCGAAA, the figure is 0.00249; as for CGCGCGAA, 0.0563.

Take AGAACGCG: the “PBM E-score” value was found to be 0.0324.

In the case of CCAGGAAA, the “PBM E-score” value was determined as 0.0576. As for ACCATCTG, the figure is -0.00679; as for CCTTCCTA, -0.197; as for CCACTGTC, -0.143. As for AGTTAAAG, the figure is 0.111; as for CGCTTCTA, -0.016. As for GCACACTA, the figure is 0.0365.

Take TGCTAGCA: the “PBM E-score” value is -0.257.

For the sequence AAGTGCGA, the “PBM E-score” value was -0.197.

As for GCGTTTAA, the “PBM E-score” value is -0.102. Take CCGCCTTC: the “PBM E-score” value is -0.0359.

CCCGAAGG: the “PBM E-score” value was found to be 0.0992.

In the case of CTAAGCGA, the “PBM E-score” value is -0.186. As for ATGACTAC, the figure is -0.228; as for CCAGTAAG, 0.0362; as for GCTCCTAC, -0.0998.

For GCGCAGCA, the “PBM E-score” value was -0.37. In the case of CATGTCGC, the “PBM E-score” value is -0.194.

In the case of ACGTCCCA, the “PBM E-score” value was -0.315.

With AGCTAGGC, the “PBM E-score” value is -0.374.

On to ACTGCGAA, for which the “PBM E-score” value is -0.0352. As for AGGGTAGA, the “PBM E-score” value is 0.135. Take GGTACGGA: the “PBM E-score” value is 0.0574.

Turning to AGCCCCCG, the “PBM E-score” value is -0.222. As for CGCCAACG, the figure is -0.0762; as for ACAAGATA, 0.0306. On to GGACGGAA, for which the “PBM E-score” value was -0.191. With GCAGCGAC, the “PBM E-score” value was -0.0984. With GGTTGCCA the figure was 0.267; with ACTGGCGC, -0.191. As for CCCTTCTA, the figure is -0.0705; as for AGCCGCCT, -0.203; as for GGCACAGA, -0.267. As for CGCGGACG, the figure is -0.236; as for ACTCTGAT, -0.0856.

Regarding GCTATCCC, the “PBM E-score” value is -0.263.

Turning to ACGCTTTG, the “PBM E-score” value is -0.0152. As for CAGCCTAG, the figure is -0.158.

For ATCACGAG, the “PBM E-score” value was -0.16.

As for AGGACCAG, the “PBM E-score” value is -0.0376. With AAGCAAAT, the “PBM E-score” value was -0.123.

As for AGCGTAAG, the “PBM E-score” value is -0.181. On to ATTGAACG, for which the “PBM E-score” value is 0.00357.

With ATCGTTGC, the “PBM E-score” value is -0.0754. As for CTGGTAAA, the figure is 0.0769. As for ACTGCCTA, the figure is -0.175.

For AAAAGTAA, the “PBM E-score” value was found to be 0.257.
